Screen size: about 420,000 compounds; about 64,000 (15%) were called active. The shares of active, inactive and inconclusive entries below differ from those in the screen. Calls follow the shape of the dose curve; as a rule, active = well fitted inhibition curve with a large enough effect; inconclusive = small, poorly fitted or top-dose-only effect; inactive = flat fitted curve, though single readings scatter. No potency is given beside an inconclusive call; the fits are too rough. Peptide text beside a SMILES is read from it. * marks the point of attachment. Boc = CC(C)(C)OC(=O)*
Test: qHTS for Inhibitors of human tyrosyl-DNA phosphodiesterase 1 (TDP1): qHTS in cells in absence of CPT; also: nearly all actives have a fitted effect of over 55% in size
Settings: DT40 Tdp1-/- hTDP1 cells, no CPT, ATP luminescence, 48 h; activity change, negative = growth inhibition: at 46.2 µM (top of the series) unless noted
Outline: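 Growth kinetics read by CellTiter-Glo luminescence after ≥48 hr at 37 °C. Cells: DT40 Tdp1-/- stably carrying human TDP1, 400 per well, compound exposure in the absence of CPT (DMSO vehicle).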
% is scaled to controls: 0 for no effect and ±100 for the full control effect; potency is read from the fitted curve at half-maximal effect; tags tell the direction and shape of the fitted curve.

| Compound | activity change, negative = growth inhibition | Potency |
| --- | --- | --- |
| CC(NC(=O)c1ccco1)c1nnc2n1CCN(Cc1ccc(N(C)C)cc1)CC2 (stereo not given) | inactive: -14.3% | – |
| CCCNC(=O)c1ccc(CN2CCOCC2)cc1 | inactive: 18.8% | – |
| CC(C)CC(NC(=O)OC(C)(C)C)C(=O)NC(C(=O)N1CCCC1C(N)=O)C(C)C (stereo not drawn) (Boc-Leu-Val-Pro-NH2; configuration not given here) | – | inconclusive [inhibitor, single point] |
| COc1ccc(NC(=O)Nc2ccccc2)cc1S(=O)(=O)N1CCCCC1 | – | inconclusive [inhibitor, single point] |
| CN1CCN(C(=O)/C(=C/c2cn(S(=O)(=O)N(C)C)c3ccccc23)NC(=O)c2ccccc2F)CC1 | – | inconclusive [inhibitor, single point] |
| O=C(COC(=O)COc1ccccc1)Nc1ccc(Cl)cn1 | inactive: 10.9% | – |
| Cc1cc(=O)oc2cc(OCC(=O)OCC(=O)Nc3c(C)n(C)n(-c4ccccc4)c3=O)ccc12 | inactive: -2.05% | – |
| O=C(O)/C=C/C(=O)Nc1ccc2c(c1)C(=O)c1ccccc1C2=O | inactive: -5.78% | – |
| CC(=O)Nc1cccc(NC(=O)CSc2cn(CC(=O)N(C(C)C)C(C)C)c3ccccc23)c1 | – | inconclusive [inhibitor, single point] |
| O=C(c1n[nH]c2ccccc12)N1CCN(c2ccc(F)cc2)CC1 | inactive: -25.8% | – |
| CCCCCCC(=O)N(O)C1CC(=O)N(c2ccc(Br)cc2)C1=O (stereo not given) | – | active: 18.4 µM |
| Cc1ccc(Cn2c(=O)c3ccccc3n3c(SCC(=O)N4CCCCC4C)nnc23)cc1 (stereo not given) | – | active: 16.4 µM |
| COC(=O)c1ccc(CSc2nnc(-c3ccncc3)n2Cc2ccccc2)o1 | – | inconclusive [inhibitor, partial curve] |
| O=C(c1ccco1)N1CCCC(c2nc3c(nnn3Cc3ccc(Cl)cc3Cl)c(=O)[nH]2)C1 (stereo not given) | inactive: -6.88% | – |
| O=C(NCc1ccccn1)c1cc(S(=O)(=O)N2CCN(c3ccccc3)CC2)ccc1Cl | – | active: 18.4 µM |
| Cn1c(CSc2nc3ccccc3s2)nc2ccccc21 | – | inconclusive [inhibitor, single point] |
| CCN(c1cccc(C)c1)S(=O)(=O)c1ccc2c(c1)NC(=O)CCS2 | – | inconclusive [inhibitor, single point] |
| COc1ccc(CNC(=O)Nc2cccc3ccccc23)cc1 | inactive: 1.09% | – |
| O=C(NCc1ccccc1)C1(C(F)(F)F)C/C(=C\CCO)CCCO1 (stereo not given) | inactive: 13.4% | – |
| COc1ccc(-n2nc(C(=O)NCC(=O)N3CCN(c4ccc(F)cc4)CC3)c3ccccc3c2=O)c(OC)c1 | – | inconclusive [inhibitor, single point] |

Source: PubChem BioAssay AID686978 (National Center for Advancing Translational Sciences (NCATS), 2013)
